# Measured values as given in article PMC4336329 (PLoS ONE, 2015).
# Hit rate of the full screen: of about 310,000 compounds, about 2,200 (0.71%) showed an effect of 50% or more. Effects have a minus sign here. The list shows a part of the results.
# Biological target: human ether-à-go-go-related gene (hERG) potassium channel (human, UniProt Q12809)
# Test: primary screen, population patch clamp on CHO cells stably expressing hERG
# Chain of human ether-à-go-go-related gene (hERG) potassium channel (Q12809 whole entry, looked up): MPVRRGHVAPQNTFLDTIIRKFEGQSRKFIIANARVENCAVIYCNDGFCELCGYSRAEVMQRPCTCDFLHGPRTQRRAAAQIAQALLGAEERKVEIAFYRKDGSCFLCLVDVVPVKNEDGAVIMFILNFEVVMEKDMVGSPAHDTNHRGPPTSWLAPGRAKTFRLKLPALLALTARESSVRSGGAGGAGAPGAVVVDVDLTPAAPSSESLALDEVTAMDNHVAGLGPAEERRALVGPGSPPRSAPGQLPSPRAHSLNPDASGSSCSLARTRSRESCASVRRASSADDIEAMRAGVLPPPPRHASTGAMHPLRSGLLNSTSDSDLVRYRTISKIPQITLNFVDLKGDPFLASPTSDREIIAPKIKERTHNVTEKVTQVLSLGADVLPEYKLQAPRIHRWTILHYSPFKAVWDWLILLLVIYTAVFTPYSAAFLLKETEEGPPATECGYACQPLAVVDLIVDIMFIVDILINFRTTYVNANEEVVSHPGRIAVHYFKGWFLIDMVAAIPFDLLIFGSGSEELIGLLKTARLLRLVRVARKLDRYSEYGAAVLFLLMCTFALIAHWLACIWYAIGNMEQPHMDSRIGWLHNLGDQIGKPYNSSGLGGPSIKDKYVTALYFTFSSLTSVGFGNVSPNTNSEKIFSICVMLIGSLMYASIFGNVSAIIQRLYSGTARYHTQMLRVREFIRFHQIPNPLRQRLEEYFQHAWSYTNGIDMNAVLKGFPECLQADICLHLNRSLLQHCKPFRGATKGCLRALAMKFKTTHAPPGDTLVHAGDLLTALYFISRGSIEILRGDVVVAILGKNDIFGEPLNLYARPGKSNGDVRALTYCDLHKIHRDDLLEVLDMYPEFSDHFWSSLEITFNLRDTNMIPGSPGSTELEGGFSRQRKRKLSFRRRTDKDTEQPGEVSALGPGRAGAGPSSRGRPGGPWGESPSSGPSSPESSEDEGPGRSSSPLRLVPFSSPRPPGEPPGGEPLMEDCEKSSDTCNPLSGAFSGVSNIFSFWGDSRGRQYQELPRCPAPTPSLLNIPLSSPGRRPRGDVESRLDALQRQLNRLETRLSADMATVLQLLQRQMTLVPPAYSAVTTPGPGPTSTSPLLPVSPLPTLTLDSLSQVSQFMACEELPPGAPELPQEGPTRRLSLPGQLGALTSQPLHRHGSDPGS
row,Structure (SMILES),"hERG current change (%, negative = inhibition) at 1uM [%]"
1,CC(CC(=O)NCc1ccco1)S(=O)(=O)c1ccc2c(c1)CCN2C(=O)C1CC1 (stereo not drawn),11.4
2,CCOC(=O)C1=C(C)N=C2c3ccccc3C(=O)C2C1c1ccc(C)cc1 (stereo not drawn),10.6
3,COc1ccc(NC(=O)C2CCCN2S(=O)(=O)c2ccc(F)cc2)cc1 (stereo not drawn),-5.53
4,O=C(NCC1CCCO1)c1cccc(Oc2c(Cl)cccc2[N+](=O)[O-])c1 (stereo not drawn),11.2
5,C=CCn1c(SCc2ccc3c(c2)OCO3)nc2scc(-c3ccco3)c2c1=O,0.0433
6,COc1ccc(CC(=S)NCCc2ccccc2)cc1,13.9
7,Clc1nc(CN2CCCCC2)nc2sc3c(c12)CCCC3,7.88
8,COCCn1c(C)cc(/C=C2/SC(=O)N(CC(=O)N3CCCC3)C2=O)c1C,4.46
9,CCOP(=O)(OCC)c1nc(/C=C/c2ccccc2)oc1NCc1ccc(OC)cc1,5.31
10,COc1ccccc1NS(=O)(=O)c1c(C(=O)N2CCCC2)c(C)n(C)c1C,14.8
11,O=C(COc1ccc2c3c(c(=O)oc2c1)CCCC3)NCCN1CCOCC1,13.8
12,COc1ccccc1NC(=O)c1oc2ccc(C)cc2c1C,12.2
13,Cc1csc(C2=C(O)CN(CCc3ccccc3)C2=N)n1,9.82
14,CC(CN1CCCC1)C(=O)NN (stereo not drawn),-6.67
15,COc1ccc(/C(C)=N/NC(=O)c2ccc(CSc3cccc4cccnc34)cc2)cc1OC,5.99
16,NC(=S)Nc1cccc2[nH]ncc12,8.75
17,C[C@H](NC(=O)c1nc[nH]c1C(=O)N1CC[NH2+]CC1)C(=O)OCc1ccccc1.[Cl-],18.2
18,COc1ccc(CNC(=O)C2CCN(S(=O)(=O)c3ccc4c(c3)CC(C)N4C(C)=O)CC2)cc1 (stereo not drawn),18.7
19,Cc1ccc(-c2cc(C(=O)N3CCOCC3)c3ccccc3n2)cc1,-11.7
20,CCOc1cc(N2CCOCC2)c(OCC)cc1NC(=O)CSc1nccc(C)n1,1.03
21,CCC1CCCCN1CCCNC(=O)Cn1cnc2sc(C)c(S(=O)(=O)N3CCC(C)CC3)c2c1=O (stereo not drawn),6.27
22,CCCc1c(C(=O)N/N=C/c2ccco2)nnn1-c1nonc1N,17.6
23,O=C(c1nc2ccccn2c1CN1CCN(c2ccccc2O)CC1)N1CCCC1,26
24,CCN(CC)CCN1C(=O)C(=O)/C(=C(/O)c2c(C)[nH]c(C(=O)OC)c2C)C1c1ccccc1OC (stereo not drawn),16.7
25,c1coc(CNCCCN2CCOCC2)c1,7.99
26,O=C(CCSc1ccccc1)Nc1nnc(-c2ccccc2)o1,8.16
27,CCOC(=O)N1CCC(NC(=O)C(NS(=O)(=O)c2ccc3c(c2)CCN3C(C)=O)C(C)C)CC1 (stereo not drawn),11.4

row,Structure (SMILES),"hERG current change (%, negative = inhibition) at 1uM [%]"
1,N#Cc1ccc(C23CC4(C2)[C@H](CN(Cc2ccc(C(F)(F)F)cc2)[C@@H]4c2ccccc2)C3c2ccccc2)cc1 (stereo partly drawn),16.9
2,COc1ccc(CCNC(=O)c2ccc(S(=O)(=O)N3CCCCC3)cc2)cc1,16.7
3,Cc1ccc(C(=O)N/C(=C\c2ccc(-c3ccccc3[N+](=O)[O-])o2)C(=O)NCCN(C)C)cc1,-29.7
4,Cc1cc(O)c(C=Nc2ccc(N3CCOCC3)cc2)c(C)c1Cl,17.8
5,COCCNC(=O)Cn1c(=O)n(CCCC(=O)NCc2ccc3c(c2)OCO3)c(=O)c2sccc21,4.57
6,N/C(=N\NS(=O)(=O)c1cc(C(F)(F)F)cc(C(F)(F)F)c1)c1ccccn1,7.78
7,CC(/C=C/c1ccco1)=N/NC(=O)Cc1cccs1,12.6
8,COc1cc(C(=O)Oc2cccc(/C=N/NC(=O)c3cccnc3)c2)cc(OC)c1OC,11.3
9,COc1ccc(C(=O)NCCc2c[nH]c3ccccc23)cc1S(=O)(=O)N1CCCCC1C (stereo not drawn),0.887
10,CC(C)SC1=NC(C)(C)C=C(/C=C/c2ccc(Cl)cc2Cl)N1,13.5
11,CCCOc1ccc(N2C(=O)CC(N3CCN(c4ccc([N+](=O)[O-])cc4)CC3)C2=O)cc1 (stereo not drawn),-34.8
12,COc1cc(-c2nc3ccc4ccccc4c3c3c2CCC3)cc(OC)c1OC,4.63
13,CC1(C)N=C(N)NC(Nc2ccccc2)=N1,6.92
14,C/C(=N\NC(=O)c1nn(C)c(C)c1Br)c1cccc(NC(=O)c2ccoc2C)c1,-9.83
15,CC(C1CC1)N(C(=O)c1ccccc1[N+](=O)[O-])c1ccccc1 (stereo not drawn),7.75
16,Cc1ccc(CSCC(=O)N/N=C/c2sccc2C)cc1,7.32
17,Cc1ccc(Nc2nc(CSc3nnc(-c4ccc(F)cc4)n3C)cs2)cc1,0.213
18,CC(C)CN(CC(C)C)S(=O)(=O)N1CCC(C(=O)NCc2cccnc2)CC1,8.83
19,CCOc1ccc(N(CC(=O)NCC(C)C)S(C)(=O)=O)cc1,7.01
20,CN(C)S(=O)(=O)c1cc(NC(=O)CSc2nn(-c3ccc(Cl)cc3)c(=S)s2)ccc1Cl,2.13
21,COc1ccc(/C(C)=N/NC(=O)c2cc(C)[nH]n2)c(OC)c1,9.31
22,O=C(Nc1ccc(NC(=O)c2ccncc2)cc1)c1ccncc1,7.78
23,CCOC(=O)C1CCN(Cc2nc3ccc(Cl)cc3n2CCO)CC1,-2.55
24,COC(=O)c1sc(Nc2ccccc2)nc1C,13.5
25,N/C(=N\OS(=O)(=O)c1ccc2ccccc2c1)c1ccncc1,5.13
26,N/C(=N\OC(=O)CCCc1ccccc1)c1ccc([N+](=O)[O-])cc1,3.39
27,CC(C)NC(=S)N/N=C1\CCCCc2ccccc21,-4.27
